Reference: EP2495257A2 (Abbott Laboratories, dated 2012)

B1: DVD1218LL (anti-IL-12/IL-18 DVD-Ig, 12-18-C, long linker) (bispecific antibody, human IgG1, kappa, lambda)
heavy: QVQLVESGGGVVQPGRSLRLSCAASGFTFSSYGMHWVRQAPGKGLEWVAFIRYDGSNKYYADSVKGRFTISRDNSKNTLYLQMNSLRAEDTAVYYCKTHGSHDNWGQGTMVTVSSASTKGPSVFPLAPEVQLVQSGTEVKKPGESLKISCKGSGYTVTSYWIGWVRQMPGKGLEWMGFIYPGDSETRYSPTFQGQVTISADKSFNTAFLQWSSLKASDTAMYYCARVGSGWYPYTFDIWGQGTMVTVSS[no letters for human IgG1 constant region]
light: QSVLTQPPSVSGAPGQRVTISCSGSRSNIGSNTVKWYQQLPGTAPKLLIYYNDQRPSGVPDRFSGSKSGTSASLAITGLQAEDEADYYCQSYDRYTHPALLFGTGTKVTVLGQPKAAPSVTLFPPEIVMTQSPATLSVSPGERATLSCRASESISSNLAWYQQKPGQAPRLFIYTASTRATDIPARFSGSGSGTEFTLTISSLQSEDFAVYYCQQYNNWPSITFGQGTRLEIKRTVAAPSVFIFPPSDEQLKSGTASVVCLLNNFYPREAKVQWKVDNALQSGNSQESVTEQDSKDSTYSLSSTLTLSKADYEKHKVYACEVTHQGLSSPVTKSFNRGEC
B2: DVD1218SL (anti-IL-12/IL-18 DVD-Ig, 12-18-C, short linker) (bispecific antibody, human IgG1, kappa)
heavy: QVQLVESGGGVVQPGRSLRLSCAASGFTFSSYGMHWVRQAPGKGLEWVAFIRYDGSNKYYADSVKGRFTISRDNSKNTLYLQMNSLRAEDTAVYYCKTHGSHDNWGQGTMVTVSSASTKGPEVQLVQSGTEVKKPGESLKISCKGSGYTVTSYWIGWVRQMPGKGLEWMGFIYPGDSETRYSPTFQGQVTISADKSFNTAFLQWSSLKASDTAMYYCARVGSGWYPYTFDIWGQGTMVTVSS[no letters for human IgG1 constant region]
light: QSVLTQPPSVSGAPGQRVTISCSGSRSNIGSNTVKWYQQLPGTAPKLLIYYNDQRPSGVPDRFSGSKSGTSASLAITGLQAEDEADYYCQSYDRYTHPALLFGTGTKVTVLGQPKAAPEIVMTQSPATLSVSPGERATLSCRASESISSNLAWYQQKPGQAPRLFIYTASTRATDIPARFSGSGSGTEFTLTISSLQSEDFAVYYCQQYNNWPSITFGQGTRLEIKRTVAAPSVFIFPPSDEQLKSGTASVVCLLNNFYPREAKVQWKVDNALQSGNSQESVTEQDSKDSTYSLSSTLTLSKADYEKHKVYACEVTHQGLSSPVTKSFNRGEC

Biological target: human IL-18 (human, UniProt Q14116 37-193)
Assay: cell-based or functional assay

Binder | Potency (IC50, M), KG-1 bioassay [M]
B1 | 1.8e-10
B2 | 1.8e-10
